Measured values: paper PMC11790891
These are yes or no findings as the source states them, for the method shown. Some binding calls cover weakened binding; strength is not graded here.

By UniProt entry, the sequences of proteins in these tests, tags left out. Where a name states a change or a piece, a line headed by the entry shows the natural chain unless it says otherwise.
UniProt Q14683: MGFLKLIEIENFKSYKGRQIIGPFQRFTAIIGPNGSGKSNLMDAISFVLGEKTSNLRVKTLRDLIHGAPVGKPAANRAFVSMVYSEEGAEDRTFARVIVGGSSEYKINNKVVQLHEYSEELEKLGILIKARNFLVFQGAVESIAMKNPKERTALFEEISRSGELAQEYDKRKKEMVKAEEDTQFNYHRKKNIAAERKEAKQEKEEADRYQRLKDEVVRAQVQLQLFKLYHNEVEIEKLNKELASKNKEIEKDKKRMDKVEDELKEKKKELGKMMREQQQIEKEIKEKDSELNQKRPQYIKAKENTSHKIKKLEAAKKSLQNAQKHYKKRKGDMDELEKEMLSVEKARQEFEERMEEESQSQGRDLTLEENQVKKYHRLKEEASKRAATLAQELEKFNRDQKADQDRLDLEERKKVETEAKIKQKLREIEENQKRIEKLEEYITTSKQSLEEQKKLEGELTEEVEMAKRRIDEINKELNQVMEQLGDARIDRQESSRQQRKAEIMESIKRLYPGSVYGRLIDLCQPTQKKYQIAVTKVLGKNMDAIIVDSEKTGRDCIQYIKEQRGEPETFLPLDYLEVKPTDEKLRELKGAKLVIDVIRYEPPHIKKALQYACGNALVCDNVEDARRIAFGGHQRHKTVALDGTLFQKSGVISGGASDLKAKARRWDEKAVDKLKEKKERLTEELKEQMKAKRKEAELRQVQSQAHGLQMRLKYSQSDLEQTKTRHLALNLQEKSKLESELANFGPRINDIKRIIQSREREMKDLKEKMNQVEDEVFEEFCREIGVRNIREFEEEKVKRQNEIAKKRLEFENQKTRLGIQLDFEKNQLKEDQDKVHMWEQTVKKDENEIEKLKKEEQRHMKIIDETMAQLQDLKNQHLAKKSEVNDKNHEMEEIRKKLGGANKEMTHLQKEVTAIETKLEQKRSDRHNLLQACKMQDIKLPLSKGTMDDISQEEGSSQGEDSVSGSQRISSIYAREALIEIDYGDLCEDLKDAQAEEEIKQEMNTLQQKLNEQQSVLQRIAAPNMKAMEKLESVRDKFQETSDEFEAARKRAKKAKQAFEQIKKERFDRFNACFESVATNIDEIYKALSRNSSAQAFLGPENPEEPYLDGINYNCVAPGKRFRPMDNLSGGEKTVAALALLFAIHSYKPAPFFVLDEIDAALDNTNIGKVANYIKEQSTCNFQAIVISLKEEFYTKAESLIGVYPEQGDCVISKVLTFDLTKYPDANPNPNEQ
UniProt Q9UQE7: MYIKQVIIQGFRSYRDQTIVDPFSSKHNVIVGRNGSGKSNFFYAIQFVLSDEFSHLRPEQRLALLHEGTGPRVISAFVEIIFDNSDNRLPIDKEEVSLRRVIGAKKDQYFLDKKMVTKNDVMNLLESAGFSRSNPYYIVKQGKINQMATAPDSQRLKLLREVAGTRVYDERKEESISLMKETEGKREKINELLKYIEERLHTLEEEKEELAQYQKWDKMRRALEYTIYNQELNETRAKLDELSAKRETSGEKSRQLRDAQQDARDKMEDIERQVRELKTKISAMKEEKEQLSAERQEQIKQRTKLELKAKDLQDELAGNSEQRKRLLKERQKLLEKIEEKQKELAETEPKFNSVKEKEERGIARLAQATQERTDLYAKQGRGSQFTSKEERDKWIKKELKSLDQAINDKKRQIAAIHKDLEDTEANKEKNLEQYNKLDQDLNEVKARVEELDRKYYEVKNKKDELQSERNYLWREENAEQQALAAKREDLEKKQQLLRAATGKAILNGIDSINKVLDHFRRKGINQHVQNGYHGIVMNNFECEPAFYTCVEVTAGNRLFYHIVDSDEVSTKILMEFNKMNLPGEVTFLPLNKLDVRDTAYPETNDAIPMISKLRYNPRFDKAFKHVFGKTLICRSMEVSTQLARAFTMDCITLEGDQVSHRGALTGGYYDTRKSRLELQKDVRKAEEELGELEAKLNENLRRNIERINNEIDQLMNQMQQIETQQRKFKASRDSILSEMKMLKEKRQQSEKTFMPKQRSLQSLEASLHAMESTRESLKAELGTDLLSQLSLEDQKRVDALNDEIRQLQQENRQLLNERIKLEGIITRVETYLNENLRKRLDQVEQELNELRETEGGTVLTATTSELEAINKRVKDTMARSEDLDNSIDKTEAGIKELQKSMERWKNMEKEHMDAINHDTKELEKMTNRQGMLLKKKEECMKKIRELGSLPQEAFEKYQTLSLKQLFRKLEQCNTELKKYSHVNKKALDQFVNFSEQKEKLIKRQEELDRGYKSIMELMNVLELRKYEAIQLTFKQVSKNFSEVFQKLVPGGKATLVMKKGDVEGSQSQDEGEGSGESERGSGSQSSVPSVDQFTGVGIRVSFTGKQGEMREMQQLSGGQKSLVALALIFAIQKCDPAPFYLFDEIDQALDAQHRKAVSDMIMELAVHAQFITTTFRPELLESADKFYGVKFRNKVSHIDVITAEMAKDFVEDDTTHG
UniProt O60216: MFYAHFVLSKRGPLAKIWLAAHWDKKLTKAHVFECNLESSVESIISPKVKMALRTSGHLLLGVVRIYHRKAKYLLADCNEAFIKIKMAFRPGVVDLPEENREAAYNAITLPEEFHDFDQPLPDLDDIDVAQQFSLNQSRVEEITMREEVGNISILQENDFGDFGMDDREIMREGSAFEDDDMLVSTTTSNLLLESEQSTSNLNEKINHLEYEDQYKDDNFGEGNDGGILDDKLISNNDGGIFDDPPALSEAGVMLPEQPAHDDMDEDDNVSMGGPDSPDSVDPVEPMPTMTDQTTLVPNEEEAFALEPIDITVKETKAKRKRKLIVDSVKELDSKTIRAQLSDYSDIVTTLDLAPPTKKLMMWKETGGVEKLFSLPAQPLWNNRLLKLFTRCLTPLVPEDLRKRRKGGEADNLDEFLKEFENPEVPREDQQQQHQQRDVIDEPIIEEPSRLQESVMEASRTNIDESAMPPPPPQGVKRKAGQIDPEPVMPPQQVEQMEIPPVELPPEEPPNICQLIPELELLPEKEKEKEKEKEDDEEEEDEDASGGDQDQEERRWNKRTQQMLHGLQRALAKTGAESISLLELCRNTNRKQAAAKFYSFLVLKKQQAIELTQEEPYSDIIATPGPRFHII
UniProt Q8WVM7: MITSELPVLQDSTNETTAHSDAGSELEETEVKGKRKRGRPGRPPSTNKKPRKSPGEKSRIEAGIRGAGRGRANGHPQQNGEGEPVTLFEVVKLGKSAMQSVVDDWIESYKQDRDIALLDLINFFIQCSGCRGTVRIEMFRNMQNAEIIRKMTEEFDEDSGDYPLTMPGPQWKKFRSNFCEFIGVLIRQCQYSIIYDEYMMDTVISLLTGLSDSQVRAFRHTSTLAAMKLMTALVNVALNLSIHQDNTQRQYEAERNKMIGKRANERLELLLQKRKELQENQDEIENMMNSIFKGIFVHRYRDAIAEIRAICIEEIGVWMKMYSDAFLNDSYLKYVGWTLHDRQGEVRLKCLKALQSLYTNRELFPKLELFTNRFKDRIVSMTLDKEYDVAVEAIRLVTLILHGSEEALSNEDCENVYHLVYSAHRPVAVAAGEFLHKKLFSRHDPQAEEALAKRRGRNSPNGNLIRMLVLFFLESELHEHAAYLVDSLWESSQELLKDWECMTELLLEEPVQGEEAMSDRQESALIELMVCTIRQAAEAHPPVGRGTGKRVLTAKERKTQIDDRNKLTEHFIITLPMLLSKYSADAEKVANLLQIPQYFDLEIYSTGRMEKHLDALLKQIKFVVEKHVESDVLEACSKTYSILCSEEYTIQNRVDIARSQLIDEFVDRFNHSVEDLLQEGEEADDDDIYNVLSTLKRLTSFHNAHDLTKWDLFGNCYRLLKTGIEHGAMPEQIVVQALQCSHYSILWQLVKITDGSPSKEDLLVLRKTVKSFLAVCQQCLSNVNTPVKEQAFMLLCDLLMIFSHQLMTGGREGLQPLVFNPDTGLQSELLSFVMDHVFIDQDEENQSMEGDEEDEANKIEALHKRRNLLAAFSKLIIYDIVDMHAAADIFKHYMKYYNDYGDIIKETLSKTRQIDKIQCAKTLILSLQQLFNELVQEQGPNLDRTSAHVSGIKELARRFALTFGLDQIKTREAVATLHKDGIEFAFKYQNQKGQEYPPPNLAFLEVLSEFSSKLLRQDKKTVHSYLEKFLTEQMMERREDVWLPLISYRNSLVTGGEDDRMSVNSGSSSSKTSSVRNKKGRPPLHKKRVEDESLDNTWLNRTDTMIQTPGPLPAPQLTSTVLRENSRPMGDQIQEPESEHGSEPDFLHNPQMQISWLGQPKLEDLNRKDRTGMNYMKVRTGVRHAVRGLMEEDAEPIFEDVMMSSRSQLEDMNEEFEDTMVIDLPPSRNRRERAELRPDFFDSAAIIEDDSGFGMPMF
UniProt O75151: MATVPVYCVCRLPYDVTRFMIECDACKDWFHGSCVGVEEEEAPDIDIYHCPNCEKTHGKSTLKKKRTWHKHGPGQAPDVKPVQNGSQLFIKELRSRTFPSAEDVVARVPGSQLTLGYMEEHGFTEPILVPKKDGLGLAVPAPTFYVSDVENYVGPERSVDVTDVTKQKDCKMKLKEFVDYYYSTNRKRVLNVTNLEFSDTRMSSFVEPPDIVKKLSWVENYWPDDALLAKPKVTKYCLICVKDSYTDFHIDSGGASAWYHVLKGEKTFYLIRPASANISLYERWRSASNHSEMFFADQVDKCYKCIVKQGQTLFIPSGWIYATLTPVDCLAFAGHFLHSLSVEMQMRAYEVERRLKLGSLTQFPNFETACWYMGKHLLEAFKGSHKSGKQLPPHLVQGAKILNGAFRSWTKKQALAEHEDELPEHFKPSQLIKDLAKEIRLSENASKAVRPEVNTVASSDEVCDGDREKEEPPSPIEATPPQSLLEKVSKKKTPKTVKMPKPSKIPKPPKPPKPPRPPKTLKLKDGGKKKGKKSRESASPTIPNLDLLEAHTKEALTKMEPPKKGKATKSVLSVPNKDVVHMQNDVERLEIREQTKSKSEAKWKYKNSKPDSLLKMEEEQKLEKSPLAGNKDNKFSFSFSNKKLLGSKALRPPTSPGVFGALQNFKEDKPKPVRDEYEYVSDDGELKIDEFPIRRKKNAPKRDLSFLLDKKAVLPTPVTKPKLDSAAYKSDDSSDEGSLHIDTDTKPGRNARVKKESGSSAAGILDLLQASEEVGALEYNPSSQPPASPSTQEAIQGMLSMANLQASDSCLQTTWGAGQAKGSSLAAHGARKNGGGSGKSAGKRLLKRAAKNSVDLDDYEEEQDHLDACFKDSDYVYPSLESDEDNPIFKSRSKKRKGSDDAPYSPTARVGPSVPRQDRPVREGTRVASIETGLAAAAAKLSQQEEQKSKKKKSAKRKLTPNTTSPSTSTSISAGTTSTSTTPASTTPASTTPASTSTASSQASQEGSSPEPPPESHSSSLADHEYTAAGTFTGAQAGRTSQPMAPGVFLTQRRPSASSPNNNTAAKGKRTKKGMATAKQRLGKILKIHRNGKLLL

Assays:
Assay in all cases: pull-down; in vitro binding assay: cohesin complexes held on FLAG beads mixed with purified Phf2 at 4 °C for 1 h in 35 mM Hepes pH 7.5, 100 mM NaCl, 5% glycerol, 0.01% Tween; three washes; eluted with FLAG peptide; silver staining or Western blot; both purified
[1] = target: human recombinant cohesin SMC1-SMC3 dimer (human) (UniProt Q14683+Q9UQE7)
[2] = target: human recombinant cohesin tetramer with STAG1 (SMC1, SMC3, SCC1, STAG1) (human) (UniProt Q14683+Q9UQE7+O60216+Q8WVM7)
[3] = target: human recombinant cohesin tetramer with STAG2 (SMC1, SMC3, SCC1, STAG2) (human) (UniProt Q14683+Q9UQE7+O60216+Q8N3U4)
[4] = target: human recombinant cohesin trimer composed of SMC1, SMC3 and SCC1 (human) (UniProt Q14683+Q9UQE7+O60216)

- binding [1]: no binding
- binding [2]: binds
- binding [3]: binds
- binding [4]: binds
Substance: His-tagged full-length Phf2 (from UniProt O75151 1-1096)
